Experimental data as given in the supplement of paper PMC4967469.

How the values were obtained:
Experiment in all cases: Viability of human cancer cell lines after 72 h of drug (GDSC screen)
[1] = compound: Cc1cc([N+](=O)[O-])ccc1NS(=O)(=O)c1cc(Cl)ccc1Cl [FH535]; conditions: top dose 32 µM; top dose inferred
Procedure: (§1)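 Human cancer cell lines in 384-well plates, medium with 10% serum, drug for 72 h over a 256-fold dose range (nine 2-fold or five 4-fold steps up to the top dose). Adherent lines were fixed and stained with the nucleic acid dye Syto60, suspension lines read with resazurin; signal relative to control wells, capped at 0 and 100%. One two-parameter sigmoid per drug and line, fitted in a mixed model over all curves with the slope shared within a line.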

[2] = compound: COc1cc(N2CCN(C)CC2)ccc1Nc1nc(N)c(C(=O)c2c(Cl)cccc2Cl)s1 [XMD14-99]; conditions: top dose 10.24 µM; top dose inferred
Procedure: as §1

[3] = compound: O=C(NC1CCNCC1)c1n[nH]cc1NC(=O)c1c(Cl)cccc1Cl [AT-7519]; conditions: top dose 10.24 µM; top dose inferred
Procedure: as §1

Row | Cell Line | AUC [1] | IC50 [1] [µM] | AUC [2] | IC50 [2] [µM] | AUC [3] | IC50 [3] [µM]
1 | PANC-03-27 (pancreas, adherent) | 0.726 | 8.34 | 0.989 | > 10.2 | 0.464 | 0.515
2 | PANC-04-03 (pancreas, adherent) | 0.826 | > 32 | 0.977 | > 10.2 | 0.907 | > 10.2
3 | PANC-08-13 (pancreas, adherent) | 0.923 | > 32 | 0.963 | > 10.2 | 0.556 | 0.949
4 | PANC-10-05 (pancreas, adherent) | 0.613 | 4.47 | 0.982 | > 10.2 | 0.562 | 0.995
5 | PC-3 (prostate, adherent) | 0.658 | 6.08 | 0.963 | > 10.2 | 0.684 | 2.37
6 | PC-3 [JPC-3] (lung adenocarcinoma, adherent) | 0.636 | 5.37 | 0.974 | > 10.2 | 0.64 | 1.78
7 | PC-14 (lung adenocarcinoma, adherent) | 0.824 | 16.4 | 0.959 | > 10.2 | 0.451 | 0.477
8 | PCI-4B (head and neck, adherent) | 0.663 | 5.53 | 0.984 | > 10.2 | 0.433 | 0.423
9 | PCI-6A (head and neck, adherent) | 0.7 | 7.2 | 0.987 | > 10.2 | 0.511 | 0.684
10 | PCI-15A (head and neck, adherent) | 0.643 | 4.98 | 0.976 | > 10.2 | 0.511 | 0.685
11 | PCI-30 (head and neck, adherent) | 0.939 | > 32 | 0.981 | > 10.2 | 0.982 | > 10.2
12 | PCI-38 (head and neck, adherent) | 0.83 | 20.2 | 0.984 | > 10.2 | 0.52 | 0.727
13 | PE/CA-PJ15 (head and neck, adherent) | 0.943 | > 32 | 0.985 | > 10.2 | 0.83 | 7.16
14 | PFSK-1 (medulloblastoma, adherent) | 0.66 | 5.72 | 0.983 | > 10.2 | 0.43 | 0.406
15 | PL4 (pancreas, adherent) | 0.766 | 12.1 | 0.987 | > 10.2 | 0.852 | 8.33
16 | PL18 (pancreas, adherent) | 0.802 | 15.6 | 0.986 | > 10.2 | 0.825 | 6.11
17 | RCM-1 (large intestine, adherent) | 0.66 | 6.17 | 0.975 | > 10.2 | 0.92 | > 10.2
18 | RD (rhabdomyosarcoma, adherent) | 0.657 | 5.72 | 0.985 | > 10.2 | 0.702 | 2.53
19 | RERF-GC-1B (stomach, adherent) | 0.773 | 14 | 0.965 | > 10.2 | 0.714 | 2.78

Row | Cell Line | AUC [1] | IC50 [1] [µM] | AUC [2] | IC50 [2] [µM] | AUC [3] | IC50 [3] [µM]
20 | RERF-LC-KJ (lung adenocarcinoma, adherent) | 0.603 | 3.87 | 0.985 | > 10.2 | 0.473 | 0.54
21 | RERF-LC-MS (lung adenocarcinoma, adherent) | 0.415 | 1.16 | 0.984 | > 10.2 | 0.839 | 7.3
22 | RERF-LC-Sq1 (lung squamous cell carcinoma, adherent) | 0.927 | > 32 | 0.979 | > 10.2 | 0.762 | 5.43
23 | RH-41 (rhabdomyosarcoma, adherent) | 0.795 | 12.2 | 0.992 | > 10.2 | 0.884 | 7.92
24 | RKN (ovary, adherent) | 0.667 | 6 | 0.974 | > 10.2 | 0.524 | 0.745
25 | RMG-I (ovary, adherent) | 0.728 | 10.1 | 0.976 | > 10.2 | 0.745 | 3.7
26 | RO82-W-1 (thyroid, adherent) | 0.85 | > 32 | 0.98 | > 10.2 | 0.983 | > 10.2
27 | RPMI-2650 (head and neck, adherent) | 0.481 | 1.77 | 0.971 | > 10.2 | 0.721 | 2.88
28 | RPMI-7951 (melanoma, adherent) | 0.806 | 15.7 | 0.953 | > 10.2 | 0.466 | 0.519
29 | RT4 (bladder, adherent) | 0.95 | > 32 | 0.987 | > 10.2 | 0.557 | 0.922
30 | RT-112 (bladder, adherent) | 0.665 | 6 | 0.981 | > 10.2 | 0.464 | 0.508
31 | RVH-421 (melanoma, adherent) | 0.391 | 0.897 | 0.945 | > 10.2 | 0.83 | 9.95
32 | SAS (head and neck, adherent) | 0.925 | > 32 | 0.972 | > 10.2 | 0.513 | 0.696
33 | SAT (head and neck, adherent) | 0.9 | > 32 | 0.975 | > 10.2 | 0.551 | 0.949
34 | SBC-3 (small cell lung carcinoma, adherent) | 0.288 | 0.538 | 0.822 | 5.28 | 0.213 | 0.102
35 | SBC-5 (small cell lung carcinoma, adherent) | 0.482 | 1.8 | 0.992 | > 10.2 | 0.987 | > 10.2
36 | SCC-4 (head and neck, adherent) | 0.741 | 11.3 | 0.984 | > 10.2 | 0.826 | 7.81
37 | SCC-9 (head and neck, adherent) | 0.866 | > 32 | 0.961 | > 10.2 | 0.472 | 0.524

IC50 is the fitted dose that halves viability relative to control wells, and lower means more sensitive; a fit beyond the top or the lowest dose is shown as a bound at that dose. AUC is the area under the same curve over the 256-fold range up to the top dose, as a fraction; values near 1 show little effect. Any top dose called inferred was derived from the fitted curves, not read from the paper.
